In the RNAGym collection of RNA variant scans (doi:10.7554/elife.90254):
The source gives no read counts; variants with many changes may rest on few reads.

B1: LINE1-mini (parent)
chain: GGCAGAGCUCAACACAGCGUGGCAAAGUGGCUGUGGCUAGACUGCC

Variants of: B1
Assay: self-cleavage, relative activity (ratio to wild type); higher = more cleavage; in vitro, sequencing; the parent is a self-cleaving ribozyme

Which self-cleavage does the source give for GGCAGAACUCAAGACAGCGUUGCAAAGUCGCUGUGCCAAGACUGCC [G7A C13G G21U G29C G36C U38A] here?
The self-cleavage was 0.02.

For GGCAGAAGUCAACACAGCGUGGCAAAGUAGAUGUGGCUAGACUGCC [G7A C8G G29A C31A], which self-cleavage is on record?
The self-cleavage was 0.

For GGCAGAACUAAACACAGCGUGGCAAAGUGGCUGUGGCUUGCCUGCC [G7A C10A A39U A41C], which self-cleavage is on record?
Its self-cleavage is 0.

For GGCAGAACUCAACACAGCGUGGCAGAAUGGCUGUGGCUAGGCUGCC [G7A A25G G27A A41G], which self-cleavage is on record?
The self-cleavage was 0.14.

For GGCAGAACUAAACACAGCGUGGCAAAGUGGCUGUGGCAAGACUGCC [G7A C10A U38A], which self-cleavage is on record?
The self-cleavage was 0.04.

For GGCAGAACUGAAAACAGCGUGGCAAAGUGGCUAUGGCUAGACUACC [G7A C10G C13A G33A G44A], which self-cleavage is on record?
Its self-cleavage is 0.02.

With GGCAGAACUCAAAACAGCGUGGCAAAUUGGCUGUGGCUCGACUGCC [G7A C13A G27U A39C] as the variant, how does the self-cleavage read?
Its self-cleavage is 0.52.

With GGCAGAACUAACCACAGCGUGGCAAAGUGGCUGUGGCUAGACUGCA [G7A C10A A12C C46A] as the variant, how does the self-cleavage read?
Its self-cleavage is 0.03.

For GGCAGAACUCAACACAGCGUGGCAAUGUGGAUGUGGCUAGACUGCC [G7A A26U C31A], which self-cleavage is on record?
Its self-cleavage is 0.03.

With GGCAGAACUCAAAACAACGUGGCCAAGUGGCGGUGGCUAGACUGCC [G7A C13A G17A A24C U32G] as the variant, how does the self-cleavage read?
Its self-cleavage is 0.

For GGCAGAAAUCAAUACAGCGUAGCAAAGUGUCUGUGGUUAGACUGCC [G7A C8A C13U G21A G30U C37U], which self-cleavage is on record?
Its self-cleavage is 0.18.

For GGCAGAACUAAACACAGAGUAGCAAAGUGGCUGUUGCUAGACUGCC [G7A C10A C18A G21A G35U], which self-cleavage is on record?
Its self-cleavage is 0.06.

Which self-cleavage does the source give for GGCAGAAGUCAACACAGCGUGGCAAAGUGGCUGUGGCUACACUGCC [G7A C8G G40C] here?
The self-cleavage was 0.03.

With GGCAGAACUCAACACAGCGUGGCAAAGUGGCUGUGGCUUGUCUGCC [G7A A39U A41U] as the variant, how does the self-cleavage read?
The self-cleavage was 0.34.

Which self-cleavage does the source give for GGCAGAAAUCAACACAGCGUGGCAAAGUGGCUGUGGCUAGACUACC [G7A C8A G44A] here?
Its self-cleavage is 0.5.

For GGCAGAAGUCAACACAGCGUGGCAAAGUGGCUGUGGCUAGUCUGCC [G7A C8G A41U], which self-cleavage is on record?
The self-cleavage was 0.2.

With GGCAGAACUCAACACAGCGUGGCAAGGUGGCUGUGGCUAGACUACC [G7A A26G G44A] as the variant, how does the self-cleavage read?
The self-cleavage was 0.19.

With GGCAGAACUCAACACAGCGUGGCGAAGUGGCCGUGGCUAGGCUGCC [G7A A24G U32C A41G] as the variant, how does the self-cleavage read?
Its self-cleavage is 0.13.

Which self-cleavage does the source give for GGCAGAACUCAAGACAGCGUGGCAAAGUGGCUCUGGCUAGACCGCC [G7A C13G G33C U43C] here?
Its self-cleavage is 0.06.

For GGCAGAACUCAAAACAGCGUGGCACAGCGGCUGUGGCUAGACUACC [G7A C13A A25C U28C G44A], which self-cleavage is on record?
Its self-cleavage is 0.1.

For GGCAGAACUCAACACUGCUUCGCAAAGUGGCUGUGGGUAGACUACC [G7A A16U G19U G21C C37G G44A], which self-cleavage is on record?
The self-cleavage was 0.05.

With GGCAGAACUCAACACAGCGUGGCUACGUGGCCGUGGCUAGAAUGCC [G7A A24U A26C U32C C42A] as the variant, how does the self-cleavage read?
The self-cleavage was 0.23.

For GGCAGAAUUCCACACAGCGUGGCAAAUUGGCUGUGGCUAGACUGCC [G7A C8U A11C G27U], which self-cleavage is on record?
The self-cleavage was 0.

For GGCAGAAAUCAACACAGCGUGGCAAAGUGGUUGUGGCUAGACUGCC [G7A C8A C31U], which self-cleavage is on record?
Its self-cleavage is 1.23.

With GGCAGAACUAAUCACAUCGUGGCAAAGUGGCUGUUGCUAGACUGCA [G7A C10A A12U G17U G35U C46A] as the variant, how does the self-cleavage read?
Its self-cleavage is 0.05.

With GGCAGAAUUCAACACAGCGUGGCAAAGUGGCUUUGGCUAGACUGCC [G7A C8U G33U] as the variant, how does the self-cleavage read?
The self-cleavage was 0.28.

Which self-cleavage does the source give for GGCAGAACUAAACACAGUGUGGUAAAGUGGCUGUGGCUAGACUGCC [G7A C10A C18U C23U] here?
Its self-cleavage is 0.02.

With GGCAGAACUCAACACAGCGUGGCGAAUUGGCUGUGGCUAGACUGCC [G7A A24G G27U] as the variant, how does the self-cleavage read?
Its self-cleavage is 0.01.

For GGCAGAAGUCAACACAGCGUGGAGAAGUGGCUGUGGCUAGAAUGCC [G7A C8G C23A A24G C42A], which self-cleavage is on record?
Its self-cleavage is 0.31.

Which self-cleavage does the source give for GGCAGAACUCAACACAGCGUGGCUAAGUAGCUGUGGCUAGACUGCC [G7A A24U G29A] here?
Its self-cleavage is 0.05.

For GGCAGAACUUAACACAGCGUGGCAAAGUGGCUCUGGCUAGACUGCC [G7A C10U G33C], which self-cleavage is on record?
Its self-cleavage is 0.03.

With GGCAGAAGUCAACACAGCGUAGCAAUGUGGCUGUGGCUAGGCUGAC [G7A C8G G21A A26U A41G C45A] as the variant, how does the self-cleavage read?
The self-cleavage was 0.11.

With GGCAGAACUAAACACAGCGUGGCAACGUGGCUAUAGCUAGACUGCC [G7A C10A A26C G33A G35A] as the variant, how does the self-cleavage read?
The self-cleavage was 0.02.

With GGCAGAACUCAAAACAGCGUGGCAAAGUGGCUGUUGCUAGACUGCC [G7A C13A G35U] as the variant, how does the self-cleavage read?
The self-cleavage was 0.44.

Which self-cleavage does the source give for GGCAGAACUUUACACAGCGUGGCAAAGUGGCUGUGGCUAGACUGCC [G7A C10U A11U] here?
Its self-cleavage is 0.03.

For GGCAGAACUCAACACUGCGUGGCAAAGUGGCUCUGGCUAGACUGCC [G7A A16U G33C], which self-cleavage is on record?
The self-cleavage was 0.04.

With GGCAGAACUCAACACAGCGUGGCAUAGUGGCUGAGGCUAGACUGCC [G7A A25U U34A] as the variant, how does the self-cleavage read?
The self-cleavage was 0.07.

For GGCAGAAUUAAUCACAGCGUGUCAAAGUGGCUGUGGCUAGACUGCC [G7A C8U C10A A12U G22U], which self-cleavage is on record?
The self-cleavage was 0.02.

With GGCAGAAGUCGACACAGCGUGGUAAAGUGGCUGUGGCUAGACUGCC [G7A C8G A11G C23U] as the variant, how does the self-cleavage read?
The self-cleavage was 0.03.

For GGCAGAACUCAACACAGCGUGGCAACGUGGCUGUGGCUAUAUUGAC [G7A A26C G40U C42U C45A], which self-cleavage is on record?
The self-cleavage was 0.09.

With GGCAGAACUCAACACAGCGUGGCCGAGUGGCUAUGGCUAGACAUCC [G7A A24C A25G G33A U43A G44U] as the variant, how does the self-cleavage read?
Its self-cleavage is 0.08.

With GGCAGAACUCAACACAGCGUGGCAAAGUGGCUGUGGCUUGACUGCU [G7A A39U C46U] as the variant, how does the self-cleavage read?
The self-cleavage was 0.01.

With GGCAGAAGUCAACACAGCGUGGCAAAGUGGCUGAGGCUAGACUGCC [G7A C8G U34A] as the variant, how does the self-cleavage read?
The self-cleavage was 0.08.

Which self-cleavage does the source give for GGCAGAACUCAACACAGCGUGGCAAGGUGUCUGUGGCUAGACUGCC [G7A A26G G30U] here?
Its self-cleavage is 0.23.

With GGCAGAACUCAAAACAUCGUGGCAAAGUGGCUGUGGCUAGACUGCC [G7A C13A G17U] as the variant, how does the self-cleavage read?
Its self-cleavage is 0.91.

Which self-cleavage does the source give for GGCAGAACUCAACACUGCGUGGCAAAGUGGCUGUGGCAUGACUGCC [G7A A16U U38A A39U] here?
The self-cleavage was 0.06.

For GGCAGAAUUCAACACACCCUGGCAAACUGGCAGUGGCUAGAAUGCC [G7A C8U G17C G19C G27C U32A C42A], which self-cleavage is on record?
Its self-cleavage is 0.05.

For GGCAGAAAUCAACACAGCCUGGCAAAGAGGCUGUGGCUAGACGGCC [G7A C8A G19C U28A U43G], which self-cleavage is on record?
The self-cleavage was 0.01.

With GGCAGAAUUCAACACAGCGUGGCAAAGCAGCUGUGGCUAGACUACC [G7A C8U U28C G29A G44A] as the variant, how does the self-cleavage read?
The self-cleavage was 0.22.

With GGCAGAACUAAAAAUAGUGUGGCAAAGUAGCUGUGGCUAGACUGCC [G7A C10A C13A C15U C18U G29A] as the variant, how does the self-cleavage read?
The self-cleavage was 0.01.

Which self-cleavage does the source give for GGCAGAACUAAAUACAGCGUGGCAAAGUGGCUGUGGCUAGACUGCC [G7A C10A C13U] here?
Its self-cleavage is 0.03.

Which self-cleavage does the source give for GGCAGAACUCAACACAGCGUGGCUCAGUGGCGGUGGCAAGACUGCC [G7A A24U A25C U32G U38A] here?
The self-cleavage was 0.03.

Which self-cleavage does the source give for GGCAGAACUAAACACAGCGUGGCAAAGUGGCUGUGGCUAGACUGCA [G7A C10A C46A] here?
Its self-cleavage is 0.02.

With GGCAGAACUGAACACCGCGUGGCAAAGUGGCUGUGGCUAGAAUGCC [G7A C10G A16C C42A] as the variant, how does the self-cleavage read?
Its self-cleavage is 0.

For GGCAGAACUUAACAUAUCGUGGCAAAAUGCCUGUGGCUAGACUGCC [G7A C10U C15U G17U G27A G30C], which self-cleavage is on record?
The self-cleavage was 0.05.

For GGCAGAACUCAACACAGCGUGGCAGCGGGGCUGUGGCUAGACUGCC [G7A A25G A26C U28G], which self-cleavage is on record?
The self-cleavage was 0.03.
